PubChem BioAssay AID1768 (National Center for Advancing Translational Sciences (NCATS), 2009)
“And” between values parts separate entries of the source, which are not always exact repeats. Identical values can stand only once. The whole screen tested about 270,000 compounds, of which about 620 (0.23%) were called active. The shares of active, inactive and inconclusive entries below differ from those in the screen. The call rests on the fitted dose curve; in most records, active means well fitted inhibition curve with a large enough effect in the polarisation, with a control signal flat (not every such curve was filed as active); inconclusive means small, poorly fitted or top-dose-only effect, or effect the other way, or a change in a side signal; inactive means no such curve, though single readings can be large or run the other way; the % refers to the polarisation. Potencies of inconclusive entries are doubtful fits and often do not repeat. A note “side channel” means that the fit belongs to a control or component signal, not to the main read-out.

molecular target: Menin (Homo sapiens) (UniProt O00255); experiment: qHTS Assay for Inhibitors Targeting the Menin-MLL Interaction in MLL Related Leukemias: Competition With Texas Red Labeled MLL-derived Mutant Peptide; conditions: fluorescence polarization; FP activity change, negative = inhibition: at 61.6 µM (top of the series); on FP activity change, negative = inhibition: % of control where 0% means no effect
Potency means the concentration at half of the fitted maximal effect; tags describe the fitted curve by direction and shape or compound fluorescence and quenching.

UniProt O00255, sequence (O00255 whole entry, looked up): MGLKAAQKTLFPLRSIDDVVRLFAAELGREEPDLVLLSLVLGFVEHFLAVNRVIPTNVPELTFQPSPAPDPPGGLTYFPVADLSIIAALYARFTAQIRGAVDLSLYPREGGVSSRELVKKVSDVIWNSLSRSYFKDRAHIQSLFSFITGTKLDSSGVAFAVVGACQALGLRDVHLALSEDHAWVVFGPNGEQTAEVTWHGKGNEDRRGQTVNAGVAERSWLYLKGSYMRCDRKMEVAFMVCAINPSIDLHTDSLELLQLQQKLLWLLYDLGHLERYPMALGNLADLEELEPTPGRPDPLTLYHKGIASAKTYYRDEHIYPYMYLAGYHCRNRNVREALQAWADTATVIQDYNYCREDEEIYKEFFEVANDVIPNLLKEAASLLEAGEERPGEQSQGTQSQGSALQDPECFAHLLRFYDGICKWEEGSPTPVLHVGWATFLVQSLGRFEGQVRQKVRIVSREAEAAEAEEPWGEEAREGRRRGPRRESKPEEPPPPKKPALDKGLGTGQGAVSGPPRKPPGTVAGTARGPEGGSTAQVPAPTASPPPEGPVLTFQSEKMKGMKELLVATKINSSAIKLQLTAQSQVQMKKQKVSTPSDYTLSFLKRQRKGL

Compound	Potency	FP activity change, negative = inhibition
Cc1ccc(NC(=O)/C(=C\c2ccccc2)NC(=O)/C=C/c2ccccc2)cc1	inconclusive: 20 µM [inhibitor, single point]	–
C[C@@H]1NC(=O)[C@H](CCCN=C(N)N)NC(=O)c2cc([N+](=O)[O-])cc(I)c2NCCC[C@@H](C(N)=O)NC1=O	inconclusive: 22.4 µM [quencher, side channel, single point]	–
O=C1/C(=C/c2cccs2)Sc2ccccc21	inconclusive: 31.6 µM [quencher, side channel, single point]	–
COc1cccc(-c2cc(C(=O)Nc3cc(OC)c(OC)c(OC)c3)no2)c1	–	inactive: 41.9%
CCN(CC)S(=O)(=O)c1ccc(C(=O)N2CCc3ccccc32)cc1	inconclusive: 25.1 µM [fluorescent, side channel, single point]	–
COc1ccccc1CC(=O)Nc1ccc([N+](=O)[O-])cc1O	inconclusive: 31.6 µM [quencher, side channel, single point]	–
O=C(Nc1ccc(O)cc1C(=O)O)c1cccc(Br)c1	inconclusive: 22.4 µM [quencher, side channel, partial curve]	–
N#Cc1cccc(-c2nc(NCc3cccs3)c3ccccc3n2)c1	inconclusive: 3.16 µM [quencher, side channel, full curve]	–
CCN1CCN(S(=O)(=O)c2ccc(OC)c(Br)c2)CC1	–	inactive: 3.75%
Cc1ccccc1CC1(CO)CCCN(Cc2ccc(C#CC(C)(C)O)cc2)C1 (stereo not drawn)	inconclusive: 8.91 µM [fluorescent, side channel, full curve, poor fit]	–
Cc1nnsc1NC(=O)OCc1ccc(C(C)(C)C)cc1	inconclusive: 28.2 µM [inhibitor, single point]	–
Cc1ccc(-n2ncc(C(=O)NC3CC3)c2C2CCN(C(=O)OC(C)(C)C)CC2)c(C)c1	–	inactive: 0.388%
COc1ccc(NC(=O)/C(Cl)=C(/Cl)S(=O)Cc2ccc(C)cc2)cn1 (stereo not drawn)	inconclusive: 1.58 µM [fluorescent, side channel, full curve, poor fit]	–
Cc1cccc(NC(=O)c2cc(=O)c3ccccc3o2)c1	inconclusive: 35.5 µM [inhibitor, single point]	–
O=C(NCCN1CCC(Cc2ccccc2)CC1)C1CCN(S(=O)(=O)N2CCC3(CC2)OCCO3)CC1	inconclusive: 17.8 µM [inhibitor, single point]	–
O=C(Nc1ccc(F)cc1)Nc1nnc(-c2ccncc2)s1	–	inactive: -18.7%
Cc1sc2ncnc(SCC(=O)c3cccs3)c2c1C	inconclusive: 39.8 µM [inhibitor, single point]	–
Cc1ccc(Nc2nc(=O)c3cccnc3s2)cc1	–	inactive: 4.46%
COC(=O)C/C=C1\c2ccccc2C(OC)C1C (stereo not drawn)	–	inactive: -5.73% [at 11.7 µM]
C=CCn1c(SCC(=O)NC(=O)NCCC)nnc1C1CCCCC1	–	inactive: -9.72%

Compound	Potency	FP activity change, negative = inhibition
CNC(=O)c1c(NC(=O)c2nc3ccccc3s2)sc2c1CCC2	inconclusive: 11.2 µM [quencher, side channel, partial curve]	–
Cc1cc2ccccc2n1CCNC(=O)c1ccc(Br)o1	inconclusive: 28.2 µM [fluorescent, side channel, partial curve]	–
Cc1cc(C)c(CN2CCN(Cc3ccc(C)o3)C(CCO)C2)c(-n2cccn2)c1 (stereo not drawn)	inconclusive: 3.55 µM [fluorescent, side channel, partial curve]	–
Fc1ccc(NC(=S)Nc2cccc3ccccc23)cc1F	inconclusive: 17.8 µM [quencher, side channel, single point]	–
CN(C)S(=O)(=O)c1cc(NC(=O)CN2CCN(c3ccc(O)cc3)CC2)ccc1Cl	–	inactive: -10.4%
COc1ccc(-n2nc(C(=O)NCC(=O)NCc3cccc(F)c3)c3ccccc3c2=O)cc1Cl	inconclusive: 39.8 µM [fluorescent, side channel, single point]	–
N#CC1=C(c2ccccc2)/C(=C/c2ccccc2)OC1=O	inconclusive: 28.2 µM [quencher, side channel, partial curve]	–
CC(=O)N1CCc2cc(S(=O)(=O)NCCC(=O)NC3CCCc4ccccc43)ccc21 (stereo not drawn)	inconclusive: 22.4 µM [inhibitor, single point]	–
CSc1cccc(NC(=O)CCCOc2ccc(Cl)cc2Cl)c1	inconclusive: 22.4 µM [quencher, side channel, single point]	–
O=[N+]([O-])c1cccc(-c2csc(N/N=C/c3cccc(O)c3)n2)c1	inconclusive: 10 µM [quencher, side channel, partial curve]	–
COc1ccccc1NC(=O)COC(=O)c1oc2ccccc2c1C	inconclusive: 28.2 µM [fluorescent, side channel, single point]	–
CCOc1ccc(NC(=O)Nc2cccn(Cc3ccccc3)c2=O)cc1	inconclusive: 39.8 µM [quencher, side channel, single point]	–
COC(=O)c1ccc(NC(=O)c2cccc(C)c2[N+](=O)[O-])cc1	inconclusive: 15.8 µM [quencher, side channel, partial curve]	–
Cc1cc(C)c(S(C)(=O)=O)c(Oc2ccccc2C)n1	inconclusive: 8.91 µM [inhibitor, partial curve]	–
COCCNC(=O)c1ccc(S(=O)(=O)c2ccc(Cl)cc2)c(NC(C)=O)c1	inconclusive: 35.5 µM [inhibitor, partial curve]	–
O=C(C1=C[C@H](c2ccc(Br)cc2)C[C@H](OCc2ccc(CO)cc2)O1)N1CCN(Cc2ccc3c(c2)OCO3)CC1	inconclusive: 1.58 µM [fluorescent, side channel, full curve]	–
COCCCNCCOCCOc1ccccc1-c1ccccc1	inconclusive: 44.7 µM [fluorescent, side channel, single point]	–
CSc1ccccc1NC(=O)C1=CC(c2cccs2)=NS(=O)(=O)N1C	inconclusive: 31.6 µM [quencher, side channel, single point]	–
O=c1cc(-c2ccccc2Cl)oc2c(NS(=O)(=O)c3cc(Cl)cc(Cl)c3O)ccc(O)c12	inconclusive: 25.1 µM [quencher, side channel, partial curve] and inconclusive: 5.01 µM [quencher, side channel, full curve]	–
Cc1[nH]n(-c2ccccc2)c(=O)c1N=Nc1c(Cl)cccc1Cl	inconclusive: 17.8 µM [quencher, side channel, single point]	–

Compound	Potency	FP activity change, negative = inhibition
Cc1ccc(N(C)C(=O)N2CCN(S(=O)(=O)c3ccc(C)cc3)CC2)cc1	inconclusive: 4.47 µM [fluorescent, side channel, full curve]	–
CCN1CCN(C(=O)C2CCCN(S(=O)(=O)c3cccc4nsnc34)C2)CC1 (stereo not drawn)	inconclusive: 0.631 µM [inhibitor, full curve, poor fit]	–
COc1ccccc1C(=O)N1CC(=O)Nc2ccc(C)cc2C1c1ccc(F)cc1 (stereo not drawn)	inconclusive: 39.8 µM [fluorescent, side channel, single point]	–
CCOc1cc(/C=C/c2nc3ccccc3c(=O)[nH]2)ccc1O	inconclusive: 39.8 µM [fluorescent, single point]	–
CC(C)CN(CCCNC(=O)CN1N=C(c2ccc(Cl)cc2)CCC1=O)CC(C)C	inconclusive: 39.8 µM [inhibitor, single point]	–
COc1ccc(-c2csc(/C(C#N)=C(\O)CSc3nccn3C)n2)cc1OC	inconclusive: 10 µM [quencher, side channel, partial curve]	–
CCC(C)(C)c1ccc(OCC(=O)N(C)C)c(C(C)(C)CC)c1	inconclusive: 3.55 µM [fluorescent, side channel, full curve]	–
N#C[C@@H]1[C@@H]2C(=O)N(c3ccc4c(c3)OCCO4)C(=O)[C@@H]2C2c3ccccc3C=CN21 (stereo partly drawn)	inconclusive: 35.5 µM [quencher, side channel, single point]	–
O=C(NC12CC3CC(CC(C3)C1)C2)c1ccc(S(=O)(=O)N2CCOCC2)cc1	–	inactive: 0.925%
N=c1n(CC(=O)c2ccc([N+](=O)[O-])cc2)c2ccccc2n1Cc1ccccc1	–	inactive: -14.5%
CC(=O)Cc1nsc(NC(=O)c2cc(-c3ccccc3Cl)oc2C)n1	inconclusive: 6.31 µM [quencher, side channel, partial curve]	–
Cc1nn(-c2ccccc2)c2c1C(c1cccs1)C(C#N)=C(N)O2 (stereo not drawn)	inconclusive: 28.2 µM [quencher, side channel, single point]	–
CCn1c2ccccc2c2c3ncc4cccn4c3ccc21	inconclusive: 8.91 µM [quencher, side channel, single point]	–
CN1CCN(c2ccccc2NC(=O)c2ccc(OCc3ccccc3)cc2)CC1	inconclusive: 39.8 µM [inhibitor, single point]	–
COc1ccccc1N1CCN(C2CCCN(C(=O)c3ccnc4ccc(C)cc34)C2)CC1 (stereo not drawn)	inconclusive: 14.1 µM [inhibitor, partial curve]	–
Cc1ccc(NC(=O)c2cc(N3C(=O)C=CC3=O)ccc2Cl)cc1C	inconclusive: 25.1 µM [quencher, side channel, single point]	–
COc1ccc(C(=O)Nc2ccc3c(c2)C(=O)NC3=O)cc1	inconclusive: 4.47 µM [inhibitor, partial curve, poor fit]	–
COc1ccc(CN2CCC(Cc3ccccc3)CC2)cc1OC	–	inactive: -13.1%
